Each structure is given as a SMILES string. The campaign covered roughly 48,000 compounds. About 120 (0.25%) were called active. About 4% were inconclusive and are not listed. The call rests on the fitted dose curve; in most records, active means well fitted activation curve with a large enough effect; inconclusive means small, poorly fitted or top-dose-only effect, or another doubt; inactive means no such curve, though single readings can be large or run the other way. Some of the results follow.

A short description of the experiment: Primary qHTS for Identification of Small Molecule Activators of Huntingtin-Antisense Promoter Activity. Further: nearly all actives have a fitted effect of over 55% in size. Conditions: HEK293 HTT-AS promoter firefly luciferase reporter, 24 h; series mostly up to 57.5 µM; activity change, positive = activation: at the top concentration. The essentials:
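Firefly luciferase readout (Dual-Glo, 10 min RT) after 24 h, 37 °C compound exposure (final up to 57.5 uM) of HEK293 reporter cells cultured 24 h beforehand; PTC124 at 50 uM final as control inhibitor; activity scaled vehicle 0%, zero RLU -100%.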
For orientation: qHTS replaces the single test concentration by a dilution series.
Take `CCOC(=O)c1ccc(NC(=O)C2=C(C)C(=O)OC23CCN(C(C)C)CC3)cc1`: the “activity change, positive = activation” value was inactive: -18.8%.

As to `Cc1ccc(CN(C(=O)COc2ccc(F)cc2)C2CCS(=O)(=O)C2)o1` (stereo not drawn), the “activity change, positive = activation” value is inactive: -6.98%. To `CCn1cc(S(=O)(=O)c2ccccc2)c(=O)c2cc(F)c(F)cc21` belongs inactive: 1.48%; to `Cc1ccc(-n2ncc(C(=O)NCCN3CCC(Cc4ccccc4)CC3)c2C2CCN(C(=O)OC(C)(C)C)CC2)cc1`, inactive: -55.8%; to `O=C(NCC(c1cccnc1)N1CCc2ccccc21)c1ccc(Cl)cc1` (stereo not drawn), inactive: -42.9%. To `CC(C)CCNC(=O)c1ccc2nc(Cc3ccccc3)oc2c1` belongs inactive: 2.3%; to `Cc1cc(NS(=O)(=O)c2ccc(NC(=O)COc3cc(C)c(Br)cc3C(C)C)cc2)no1`, inactive: -25.1%; to `CCOc1ccc(N(CC)C(=O)Cn2cnc3sc(C)c(S(=O)(=O)N4CCN(c5ncccn5)CC4)c3c2=O)cc1`, inactive: -8.86%. To `COc1ccc(-c2cc(C(F)(F)F)nc(SCC(=O)NC(C)c3ccccc3)n2)cc1` (stereo not drawn) belongs inactive: -17%. As to `O=C(Cn1ncc2c3ccccc3n(Cc3ccccc3)c2c1=O)NCc1ccccn1`, the “activity change, positive = activation” value is inactive: -10.5%.

With `COc1ccc(Nc2ncc3c(n2)CCN(Cc2sccc2C)C3)c(OC)c1`, the “activity change, positive = activation” value was inactive: -7.8%. To `COc1ccc2c(CNCCc3ccco3)c(C(=O)O)n(Cc3ccc(C)cc3)c2c1` belongs inactive: -23.3%; to `COc1ccc(C(CNC(=O)c2oc3cc(Br)ccc3c2C)N2CCCCC2)cc1` (stereo not drawn), inactive: 13.5%; to `O=[N+]([O-])c1ccc(S(=O)(=O)N2CCn3cccc3C2c2ccc(Br)cc2)cc1` (stereo not drawn), inactive: -24.3%. To `Cc1ccc(-n2nc(C(=O)N(C)c3ccc(C)c(C)c3)c3c4ccccc4n(C)c3c2=O)cc1` belongs inactive: -7.72%. To `Cc1ccc(S(=O)(=O)N(CC(=O)Nc2cccnc2)c2cc(Cl)ccc2C)cc1` belongs inactive: -51%; to `CCOC(=O)CN1C(=O)N(c2ccc(C)c(C)c2)S(=O)(=O)c2ccccc21`, inactive: -30.3%. As to `Cc1ccc(CN2CCC(CNC(=O)c3cnn(-c4ccc(C)cc4)c3C3CCN(C(=O)OC(C)(C)C)CC3)CC2)cc1`, the “activity change, positive = activation” value was inactive: -94.2%. To `Cc1cc(=O)n(CC(=O)Nc2ccc(Cl)c(Cl)c2)c(-n2nc(C)cc2C)n1` belongs inactive: -47.5%; to `COc1ccc(NC(=O)CC2C(=O)N(c3ccccc3)C(=O)N2CCc2sccc2C)cc1` (stereo not drawn), inactive: 15.7%.

For `Cc1cccc(NC(=O)CCCn2nc(C)c3c(C)n(-c4ccccc4)nc3c2=O)c1C`, the “activity change, positive = activation” value is inactive: 0.678%.

With `CCOc1ccc(CNC(=O)C2CCCN(c3nn4cc(-c5ccc(OC)cc5)nc4s3)C2)cc1` (stereo not drawn), the “activity change, positive = activation” value was inactive: 1.82%.

On to `CCOC(=O)C1CCN(C(=O)c2cnn(-c3ccc(F)cc3)c2-n2cccc2)CC1`, for which the “activity change, positive = activation” value is inactive: -32%. To `CCOC(=O)c1[nH]c2c(c1Cc1ccccc1)C(=O)CC(c1ccc(C(C)(C)C)cc1)C2` (stereo not drawn) belongs inactive: -31.5%.

Take `CCc1ccc(NC(=O)CSc2nnc(CC)c(CC)n2)cc1`: the “activity change, positive = activation” value is inactive: -11.8%. Consider `CCN(CC)S(=O)(=O)c1cc(-c2ccc(=O)n(C(C)C(=O)Nc3cccc(C#N)c3)n2)ccc1C` (stereo not drawn), for which the “activity change, positive = activation” value is inactive: -32.6%. To `Cc1ccc(Cn2c(CN3CCC(C(=O)O)CC3)cc3ccccc32)cc1` belongs inactive: -3.4%.

Regarding `COc1ccc(C(=O)Nc2nc3c(s2)Cc2c(Br)ccc(OC)c2-3)cc1OC`, the “activity change, positive = activation” value was inactive: -2.79%. To `Cc1cc(C)cc(N(CC(=O)Nc2c(C)cc(C)cc2C)S(=O)(=O)c2c(C)nn(C)c2C)c1` belongs inactive: -21.7%. To `CCN(CC)CCCNC(=O)c1sc2nc3n(c(=O)c2c1C)CCCCC3` belongs inactive: -3.64%; to `COc1ccc(-c2noc(CSc3nnc(Cc4ccccc4)n3-c3ccc(F)cc3)n2)cc1`, inactive: -34.7%; to `CN(CC(=O)Nc1ccc(F)cc1F)S(=O)(=O)c1cccc2nsnc12`, inactive: 11.9%. To `COc1ccc(CNC(=O)CCCn2ccc3cc(S(=O)(=O)N4CCCC4)ccc32)cc1` belongs inactive: -15.9%; to `CCOc1cc(-c2nnc(SCC(=O)NC3CCCCC3)nc2-c2ccc(OC)c(OCC)c2)ccc1OC`, inactive: -18.8%; to `CC(C)NC(=O)C1CCCN(c2ncnc3onc(-c4ccc(F)cc4)c23)C1` (stereo not drawn), inactive: -12.3%. Turning to `CCOc1ccccc1NC(=O)CCS(=O)(=O)c1ccc2c(c1)oc(=O)n2C`, the activity change, positive = activation is inactive: -9.14% [at 11.5 µM, percent change from vehicle, -100% = no light]. To `CCOC(=O)C(C)Sc1nnc2cc(C)c3ccccc3n12` (stereo not drawn) belongs inactive: -5.71%. To `COc1ccc2oc(-c3cccc(NC(=O)c4cc([N+](=O)[O-])ccc4N4CCOCC4)c3)nc2c1` belongs inactive: -9.41%; to `COc1cc(C2c3c(-c4c(C)cc(C)cc4O)n[nH]c3C(=O)N2Cc2ccco2)cc(OC)c1OC` (stereo not drawn), inactive: -32.6%. To `CCCCN(CCCC)CCCNC(=O)c1ccc2nc(N3CCCCC3)sc2c1` belongs inactive: 9.36%; to `Cc1ccc(CNC(=O)CCNS(=O)(=O)c2ccc3c(c2)CCCC(=O)N3)cc1`, inactive: -20.8%. For `COc1ccc(-c2nnn3c2nc(NCCc2ccc(OC)c(OC)c2)c2ccccc23)cc1`, the “activity change, positive = activation” value was inactive: -3.75%. To `Cc1nn2c(=O)cc(COc3ccc(/C=C(\C#N)C(=O)Nc4ccccc4C)cc3)nc2s1` belongs inactive: -20%; to `COc1ccc2c(c1)c1c(c(=O)n(-c3cc(Cl)ccc3C)c(=O)n1CC(=O)N1CCCC1)n2C`, inactive: -3.96%; to `COc1ccc(OC)c(Nc2nc3ccccc3nc2-n2nc(C)cc2C)c1`, inactive: 1.56%. To `CCCCN1C(=O)c2[nH]nc(-c3ccccc3O)c2C1c1ccc(OCc2ccccc2)c(OC)c1` (stereo not drawn) belongs inactive: -54.6%; to `Cc1ccccc1NC(=O)c1c(NC(=O)c2ccccc2F)sc2c1CCC(C)C2` (stereo not drawn), inactive: -5.59%; to `COc1ccc(Cn2ccc3nc(C)c(C(=O)N4CCN(c5ccc(F)cc5)CC4)cc3c2=O)cc1`, inactive: -7.68%.

As to `Cc1ccc(Sc2c(C)nn(C(C)(C)C)c2OC(=O)CC(C)C)cc1`, the “activity change, positive = activation” value was inactive: -2.92%. To `Cc1c(C(=O)OC2CCC(C)CC2)[nH]c2c1C(=O)CC(c1ccc(F)cc1)C2` (stereo not drawn) belongs inactive: -26.2%; to `CC(C)CCNc1nc2c(-c3ccccc3)nnn2c2ccccc12`, inactive: -6.98%; to `Cc1ccc(C(=O)CSc2nc3cc(C(=O)NC4CCCC4)ccc3c(=O)n2CC2CCCO2)c(C)c1` (stereo not drawn), inactive: 1.23%. To `Oc1ccc(OCc2ccccc2)cc1` belongs inactive: 1.32%. Consider `CCOc1ccc(CNC(=O)c2ccc(CSc3nc4ccncc4n3Cc3ccc(F)cc3)cc2)cc1`, for which the “activity change, positive = activation” value was inactive: -21.4%.

On to `COc1cccc(-c2cc(C(=O)Nc3cnn(Cc4ccc(Cl)cc4Cl)c3)no2)c1`, for which the “activity change, positive = activation” value was inactive: -24.4%. To `O=C(CC1N=C2c3ccccc3N=C(SCc3cccc(F)c3)N2C1=O)NCc1cccs1` (stereo not drawn) belongs inactive: -9.17%.

For the compound `COc1cccc(NC(=O)c2oc3ccccc3c2NC(=O)c2ccccc2C)c1`, the “activity change, positive = activation” value was inactive: -0.554%.

Turning to `COC(=O)c1ccccc1NC(=O)CSc1n[nH]c(CC(C)C)n1`, the “activity change, positive = activation” value is inactive: -26.9%.
